Measured values as given in PubChem BioAssay AID504832 (National Center for Advancing Translational Sciences (NCATS), 2011).
Hit rate of the full screen: of about 310,000 compounds, about 18,000 (5.8%) were called active. Inconclusive means that the source gave no clear call. Such entries were picked first, then a sample of the others. Calls come from the whole dose curve; as a rule, active = well fitted inhibition curve with a large enough effect; inconclusive = small, poorly fitted or top-dose-only effect, or another doubt; inactive = no such curve, though single readings can be large or run the other way. No potency is given beside an inconclusive call; the fits are too rough.

Assay: Primary qHTS for delayed death inhibitors of the malarial parasite plastid, 48 hour incubation
Conditions: P. falciparum luciferase growth in erythrocytes; series mostly up to 28.7 µM
How it was run: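 Read-out is firefly luciferase luminescence from an integrated reporter in P. falciparum, so falling signal marks reduced parasite growth. Infected erythrocytes were at 2% hematocrit and 0.1% parasitemia (final) in Albumax-supplemented RPMI 1640.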
Potency is the fitted concentration of half-maximal effect; tags give direction and shape of the fitted curve.

SMILES	Potency
COc1cccc(-c2ocnc2C(=O)Nc2ccc3c(c2)CCC3)c1	inactive
COCCN(CCOC)c1ncc(Cl)c(C(=O)c2c(C)cc3ccccn23)n1	inconclusive [inhibitor, single point]
COc1ccccc1NC(=O)c1ccc(NS(=O)(=O)c2c(C)noc2C)cc1	inconclusive [inhibitor, full curve, poor fit]
O=C(C[n+]1cc(-c2ccc(F)cc2)n2c1CCC2)c1cccs1	active: 8.28 µM
COc1ccc(CN(CC(=O)NC2CCCC2)C(=O)CCC(=O)Nc2cc(C)on2)cc1	inconclusive [inhibitor, single point]
O=C1CCNc2cc3ccccc3cc21	inconclusive [inhibitor, single point]
Cc1ccc(NC(=O)c2ccc(-n3cncn3)c([N+](=O)[O-])c2)cc1	inconclusive [inhibitor, single point]
CCCCC(=O)Nc1cccc(-c2nnc(-c3ccccc3)o2)c1	inconclusive [inhibitor, single point]
COc1ccccc1/C=C/C(=O)NNC(=O)c1cccs1	inactive
Cc1ccc2c(c1)N(CCC(=O)NC1CCCCC1)C(=O)CO2	inactive
COc1cc2c(cc1OC)CN(C(=O)CNS(=O)(=O)c1ccc(C)c(C)c1)CC2	inconclusive [inhibitor, partial curve]
O=C(NCc1ccccc1)c1onc(CSc2nc3ccccc3[nH]2)c1C(=O)NCc1ccccc1	active: 1.17 µM
Cc1cccc(-n2cc(CNCCc3nc(C)cc(C)n3)c(-c3cccc(F)c3)n2)c1	inconclusive [inhibitor, partial curve]
CON(C)c1nc(OCCNC(=O)OCc2ccc(Cl)cc2Cl)nc(N(C)C)n1	inactive
OCCOc1cccc(CN2CCC(CO)(CCOc3ccccc3)CC2)c1	inconclusive [inhibitor, partial curve, poor fit]
Cc1[nH]nc2c1C(c1ccco1)C(C#N)=C(N)O2 (stereo not given)	inactive
CC(C)(C)c1nc(NCc2ccc3c(c2)OCO3)c2nnn(Cc3ccccc3Cl)c2n1	inconclusive [inhibitor, partial curve, poor fit]
CC(=O)Oc1ccc2ccccc2c1C(NC(=O)Cc1ccccc1)c1ccccc1Cl (stereo not given)	active: 2.62 µM
Cc1ccc(S(=O)(=O)C2(C(=O)Nc3nccs3)CC2)cc1	inactive
CN(/N=C/c1ccc(O)cc1O)c1nc(-c2ccccc2)cc(-c2ccccc2)n1	active: 9.28 µM
COc1cc(CN(C(=S)NCC(=O)NC2CC2)C2CCCC2)cc(OC)c1OC	inactive
COc1ccc(OCC(=O)N2CCN(C(=O)COc3ccc(Br)cc3)CC2)cc1	inconclusive [inhibitor, partial curve]
CCCCn1c(NC(=O)c2ccc(Br)o2)c(C(=O)OCC)c2nc3ccccc3nc21	inconclusive [inhibitor, single point]

SMILES	Potency
Cc1cc(=O)c(C(=O)Nc2cccc(N3CCCC3=O)c2)nn1-c1ccccc1Cl	inconclusive [inhibitor, single point]
CCCS(=O)(=O)c1c(S(=O)(=O)CCC)c2c(N)cccn2c1C(=O)c1ccc(Br)cc1	active: 11.7 µM
O=S(=O)(NC1=NCCC1)c1cccc(NC(=S)NCCc2ccccc2)c1	inactive
O=C(COC(=O)C(c1ccccc1)c1ccccc1)NCc1ccco1	inactive
CCN(CC)c1nc(N2CCOCC2)nc2ccccc12	inconclusive [inhibitor, partial curve, poor fit]
S=c1[nH]cc(-c2ccccc2)n1-c1ccccc1Cl	inconclusive [inhibitor, partial curve, poor fit]
Cc1ccc(NC(=O)c2nc[nH]c2C(=O)N[C@@H](C)c2ccccc2)cc1	inconclusive [inhibitor, single point]
O=C(c1ccc(S(=O)(=O)N2CCCC2)cc1)N(Cc1ccco1)C1CCS(=O)(=O)C1 (stereo not given)	inactive
CC(Oc1ccc(-c2ccccc2)c(F)c1)c1ccn(S(=O)(=O)c2ccc(F)cc2)n1 (stereo not given)	inconclusive [inhibitor, single point]
Cc1cc(C)cc(NC(=O)COC(=O)Cc2ccccc2F)c1	inactive
COc1nc(N)c(C#N)c(-c2ccc(N(C)CCC#N)cc2)c1C#N	inconclusive [inhibitor, single point]
Cc1ccc(NC(=O)CN(C)S(=O)(=O)c2cccs2)cc1C	inactive
Cc1nn(-c2ccccc2)c2sc(C(=O)NCCN3CCOCC3)cc12	inconclusive [inhibitor, single point]
C/C=C/c1ccc(OCC(=O)Nc2cc(Cl)ccc2-n2cncn2)c(OC)c1	inconclusive [inhibitor, partial curve]
O=C(CCCCCn1c(=S)[nH]c2cc3c(cc2c1=O)OCO3)N1CCN(C(=O)c2ccco2)CC1	inconclusive [inhibitor, single point]
CN(C)c1cc(-c2ccc(Br)cc2)oc(=O)c1Cl	inconclusive [inhibitor, partial curve, poor fit]
CCN1C(=O)C(O)(CC(=O)c2cccc(-n3cccc3)c2)c2ccccc21 (stereo not given)	inactive
CC(C)C[C@H](NC(=O)[C@@H](O)[C@H](N)Cc1ccccc1)C(=O)O	active: 0.757 µM
CC(C)(C)c1cc(NC(=O)Nc2ccccc2OC(F)(F)F)no1	active: 11.7 µM
CC(=O)c1ccc(S(=O)(=O)N(C)CCCC(=O)N(C)Cc2c(F)cccc2Cl)cc1	inconclusive [inhibitor, partial curve]
CCOC(=O)C1=C(CC)Nc2ccccc2N=C1NC(=O)c1ccc(S(=O)(=O)N(C)C)cc1	inconclusive [inhibitor, single point]
Cc1ccc(C(=O)OCC(=O)Nc2cc(C(C)(C)C)nn2-c2ccccc2)c(O)c1	inconclusive [inhibitor, single point]
